In all, about 310,000 compounds went through this assay and about 14,000 (4.5%) showed an effect of 50% or more. Effects have a minus sign here. Some of the results follow.
What follows are molecules tested against human ether-à-go-go-related gene (hERG) potassium channel (human, UniProt Q12809) (assay: primary screen, population patch clamp on CHO cells stably expressing hERG).
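Also: peak tail current of the secondary pulse compared with the same well before compound.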

Sequence of human ether-à-go-go-related gene (hERG) potassium channel (Q12809 whole entry, looked up): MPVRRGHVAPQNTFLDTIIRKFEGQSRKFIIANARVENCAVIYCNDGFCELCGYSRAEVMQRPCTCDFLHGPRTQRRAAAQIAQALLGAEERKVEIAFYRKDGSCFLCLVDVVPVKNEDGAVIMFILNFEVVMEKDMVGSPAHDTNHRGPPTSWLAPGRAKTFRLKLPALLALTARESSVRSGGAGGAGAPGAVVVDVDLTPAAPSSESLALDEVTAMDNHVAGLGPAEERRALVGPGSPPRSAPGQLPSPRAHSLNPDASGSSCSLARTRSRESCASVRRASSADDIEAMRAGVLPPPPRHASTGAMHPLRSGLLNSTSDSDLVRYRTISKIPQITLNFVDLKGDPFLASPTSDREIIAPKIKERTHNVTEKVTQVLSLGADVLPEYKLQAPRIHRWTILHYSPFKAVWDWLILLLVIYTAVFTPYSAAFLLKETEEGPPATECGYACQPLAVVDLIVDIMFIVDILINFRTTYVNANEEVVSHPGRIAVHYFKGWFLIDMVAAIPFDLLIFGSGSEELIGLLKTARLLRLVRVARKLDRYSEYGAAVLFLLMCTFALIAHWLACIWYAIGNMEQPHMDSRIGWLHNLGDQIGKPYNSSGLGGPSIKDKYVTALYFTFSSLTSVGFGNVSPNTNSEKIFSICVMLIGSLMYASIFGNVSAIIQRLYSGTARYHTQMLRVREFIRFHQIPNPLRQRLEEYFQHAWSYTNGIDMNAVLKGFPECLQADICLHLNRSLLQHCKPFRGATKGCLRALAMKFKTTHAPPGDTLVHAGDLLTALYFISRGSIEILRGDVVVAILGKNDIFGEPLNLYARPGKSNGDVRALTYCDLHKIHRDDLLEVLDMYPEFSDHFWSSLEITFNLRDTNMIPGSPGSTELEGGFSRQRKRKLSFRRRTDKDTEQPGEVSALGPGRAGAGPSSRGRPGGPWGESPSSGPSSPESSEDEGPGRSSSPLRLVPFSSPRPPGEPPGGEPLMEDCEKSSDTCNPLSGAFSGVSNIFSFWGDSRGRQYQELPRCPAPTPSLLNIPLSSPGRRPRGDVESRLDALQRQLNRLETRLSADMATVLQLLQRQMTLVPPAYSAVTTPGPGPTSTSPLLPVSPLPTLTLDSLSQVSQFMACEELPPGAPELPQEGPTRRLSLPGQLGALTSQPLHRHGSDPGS

Compound	hERG current change (%, negative = inhibition) at 10uM [%]
COC(=O)c1ccc(NC(=O)C2CCN(S(C)(=O)=O)CC2)cc1	13.4
O=C(CCC(=O)OCC(F)(F)C(F)F)Nc1ccc(F)cc1F	14.9
CCOC(=O)c1ccc(NC(=O)c2cccc3c2C(=O)N(CC2CCCO2)C3)cc1 (stereo not shown)	-2.27
COC(=O)C1=C(c2cccc(OCc3ccccc3)c2)C[C@@H]2CC[C@H]1N2C(=O)NCCCc1ccccc1	-6.16
Cc1ccc(-c2cn(-c3ccccc3F)c(=S)[nH]2)cc1	36.6
CCOc1ccc(C(=O)CCC(=O)NC(C)C(=O)OC)cc1 (stereo not shown)	1.18
CCOC(=O)Nc1ccc2c(c1)N(CCCN(C)C)c1ccccc1CC2.Cl	-44.8
O=C(CNS(=O)(=O)c1cccs1)NCc1ccc(F)cc1	17.5
CSCCC(NC(=O)c1ccco1)c1nc2ccccc2[nH]1 (stereo not shown)	-41.6
CC1CCN(Cc2c(C(=O)N3CCc4ccccc4C3)nc3ccc(Cl)cn23)CC1	-31.7
O=C(CSc1nc2ccccc2c(=O)[nH]1)N1CCCCCC1	10.1
O=C(Cc1cccc2ccccc12)Nc1ccc(-c2cc3ccccc3oc2=O)cc1	-15.4
O=S(=O)(c1ccc(OCC(O)CN2CCCC2)cc1)N1CCOCC1 (stereo not shown)	11.2
CCCCCn1nnc2c(=O)oc3ccccc3c21	-9.32
CSC1=NCCN1C(=O)Cc1cccs1	-5.77
Cc1ccc(-c2csc(NC(=O)C3=COCCO3)n2)cc1	-3.61
N#Cc1ccc(S(=O)(=O)NC2CC2)cc1	30.5
COc1ccc(NC(=O)c2cccc(S(=O)(=O)N3CCCCC3)c2)c(OC)c1	-29.9
Cc1ccc(C(=O)n2cnc3ccccc32)cc1C	6.11
CC(=O)Nc1ccc(NC(=O)[C@@H]2CCCC[C@@H]2C(=O)O)cc1	10.2
O=[N+]([O-])c1ccc(-c2nc(-c3ccncc3)no2)cc1	-16
COCCNS(=O)(=O)c1ccc(-c2ccc(C)cc2)cc1	3.72

Compound	hERG current change (%, negative = inhibition) at 10uM [%]
COC(=O)c1ccccc1NC(=O)c1cc[n+]([O-])cc1	10.9
COc1ccc(CN(C)CC(=O)Nc2ccccc2C(F)(F)F)c(OC)c1.O=C(O)C(=O)O	-0.141
CCOc1cc(-c2nc(C)c(C(C)=O)n2O)ccc1OCC(=O)Nc1ccccc1	-0.49
CCCCCC(=O)Nc1ccc2ccccc2c1	2.5
Cc1ccccc1-c1noc(-c2ccc(O)cc2)n1	-6.18
CCOC(=O)CNC(=O)Cn1cnc2c(oc3ccccc32)c1=O	6.54
COc1cc(C(=O)NNC(=O)c2ccc(F)cc2)ccc1OCC(=O)N1CCOCC1	2.15
CC(C)(O)C#Cc1ccc(C(=O)N2CCCC(CCC(=O)NCc3ccccc3F)C2)cc1 (stereo not shown)	3.95
CCOC(=O)CNC1CC(=O)N(c2cccc(Cl)c2)C1=O (stereo not shown)	-0.687
O=C(Oc1ccc([N+](=O)[O-])cc1)c1cncc(Br)c1	-9.62
O=C(O)COCC(=O)NCc1csc2ccc(Cl)cc12	13.8
COc1ccc(CNCc2ccncc2)c(OC)c1.Cl	-0.685
CCC1=Nc2cc(C(=O)NCc3ccco3)ccc2Sc2ccccc21	-6.24
CCc1cccc(NC(=O)CCS(=O)(=O)c2ccc3c(c2)NC(=O)CO3)c1	-5.83
COc1ccc(N2CCN(C(=O)CCN3C(=O)C4C5C=CC(C5)C4C3=O)CC2)cc1 (stereo not shown)	-0.214
NC(=O)C1CCN(C(=O)c2ccccc2CCc2ccccc2)CC1	14.1
COc1cccc(-c2nnc(NC(=O)c3ccc(Cl)s3)o2)c1	-2.19
Cc1cc(C)cc(N2C(=O)CC(Sc3ncn[nH]3)C2=O)c1 (stereo not shown)	26.7
Nc1ccccc1C#Cc1ccccc1	4.89
COc1ccc(/C=N/NC(=O)c2cccnc2)cc1CN1CCCc2ccccc21	-27.4
Cn1c(=O)c2c(nc(NCc3ccco3)n2C/C=C/c2ccccc2)n(C)c1=O	7.99
Cc1c(OCC(=O)NCCCN2CCOCC2)ccc2c3c(c(=O)oc12)CCCC3	-18.1

Compound	hERG current change (%, negative = inhibition) at 10uM [%]
Cn1c(CNC(=O)CNC(=O)c2cccc(Cl)c2)cc(=O)n(C)c1=O	17.7
O=C(O)CCCNC(=O)/C=C/c1ccco1	12.5
Cc1cc(NS(=O)(=O)c2cccc([N+](=O)[O-])c2)no1	28.8
Cc1cc(C)c(Cn2cnc3ccccc32)c(C)c1	-20.2
Cc1cc(N2CCN(C)CC2)nc2ccc(NC(=O)c3ccc(Br)o3)cc12	-77.4
COc1ccc(C(c2c(C)n(C)n(-c3ccccc3)c2=O)c2c(C)n(C)n(-c3ccccc3)c2=O)cc1OC	16
CC[n+]1c(S(=O)(=O)[O-])ccc2ccc(C)cc21	6.26
CCn1c(C(O)c2cc(OC)ccc2OC)nc2ccccc21 (stereo not shown)	9.66
COc1ccc(NS(=O)(=O)c2cc(N/C(=N\S(=O)(=O)c3ccccc3)c3ccc(F)cc3)ccc2Cl)cc1	-0.199
COc1ccccc1CNC(=O)CN1CCN(Cc2ccc(Cl)cc2)C1=O	-10.9
COc1ccccc1/C=N/OCc1cc(C(C)=O)ccc1OC	10.1
CCOC(=O)c1sc2ncn(CC(=O)NCC3CCCO3)c(=O)c2c1C (stereo not shown)	2.14
Cc1ccc(S(=O)(=O)N(C)CC(=O)NCCc2c[nH]c3ccccc23)cc1	-29.6
Cc1ccc(NC(=O)COC(=O)c2ccccc2Cl)cc1S(=O)(=O)N(C)C	-30.4
CCOC(=O)c1ccc(NC(=O)CN2C(=O)NC3(CCC(C)CC3)C2=O)cc1 (stereo not shown)	2.08
COc1ccc(S(=O)(=O)N(C)c2ccc(C(=O)Nc3ccccc3C(=O)N3CCOCC3)cc2)cc1	-6.94
COc1ccc(CNC(=O)C/C(C)=N/NC(=O)COc2ccc(Br)cc2)cc1	-33.3
COCC(C)n1c(C)cc(C(=O)COC(=O)/C=C/c2cccc(F)c2)c1C (stereo not shown)	-31.6
CCCCCCCNC(=O)C1(CC2CC(c3ccc(Cl)cc3)=NO2)CCN(C(=O)OC(C)(C)C)CC1 (stereo not shown)	21.1
CCN(CC)C(=O)CSc1nc2ccccc2o1	5.03
O=C(NCCCn1ccnc1)Nc1ccc2c(c1)OCO2	23.9
C(=N\N=C\c1ccccn1)/c1ccccn1	-0.482

Compound	hERG current change (%, negative = inhibition) at 10uM [%]
COc1cccc(CNC(=O)c2ccc(OC)c(S(=O)(=O)NC3CCCC3)c2)c1	-23.7
O=C(/C=C/c1cccs1)c1cc(F)ccc1OC(=O)N1CCOCC1	-27.2
COC(=O)c1ccccc1S(=O)(=O)N1CCC(C(=O)OCC(=O)NCC(F)(F)F)CC1	-27.1
CC(N=Cc1c(O)[nH]c(=O)[nH]c1=O)c1ccccc1 (stereo not shown)	3.68
O=C(CCC1CCCC1)N=C1SC2CS(=O)(=O)CC2N1c1ccccc1F (stereo not shown)	11.2
O=C(OCC(=O)N1CCCC1=O)C1CCN(S(=O)(=O)c2ccc(Cl)c(C(F)(F)F)c2)CC1	5.31
CCC1(CC)Cc2ccccc2-c2[nH]c(=S)[nH]c(=O)c21	2.43
Cc1ccc(C)c(NC(=O)/C(C#N)=C/c2cn(CC(=O)NCc3ccco3)c3ccccc23)c1	17.5
COc1cc(OC)cc(-n2nnnc2SCC(=O)NC2CCCC2)c1	-12.8
C=CCN1CC(=O)N2C(c3ccccc3)c3[nH]c4ccccc4c3C[C@H]2C1=O (stereo partly shown)	-31.6
Cc1cc(NC(=O)CN2C(=O)c3ccccc3S2(=O)=O)no1	10.2
O=C(c1ccc(N2CCN(S(=O)(=O)c3ccccc3)CC2)c([N+](=O)[O-])c1)N1CCOCC1	-35.1
O=[N+]([O-])c1ccc2nc(NCCCO)nc(-c3ccccc3)c2c1	-22.7
O=C(/C=C/c1ccc(Cl)cc1)Nc1ccc(CN2CCOCC2)cc1	-28
CC(=O)Nc1ccc(OCc2cccc3ccccc23)cc1	7.91
O=C(C[n+]1ccc(C(=O)N/N=C/c2ccc(Cl)cc2Cl)cc1)c1ccccc1.[Br-]	-74.8
CCCOc1ccc(C(=O)Nc2cc(-c3nn4c(C)nnc4s3)ccc2C)cc1	15
CCOC(=O)C1=C(c2ccccc2)Nc2c(c(=O)n(C)c(=O)n2C)C1c1ccc(O)c(OC)c1 (stereo not shown)	1.68
Cc1ccccc1NC(=O)C1CCCN1C(=O)NC1CCCCC1 (stereo not shown)	15.1
O=S(=O)(c1ccc(F)cc1)N1CCC(n2cnc3ccccc32)CC1	-39.7
Cc1cc(NC(=O)c2cc([N+](=O)[O-])ccc2Cl)no1	8.65
Cc1cc(C(=O)Nn2c(-c3ccc(Br)cc3)nc3ccccc3c2=O)ccc1[N+](=O)[O-]	8.86

Source: article PMC4336329 (PLoS ONE, 2015)
